Assay results as given in the supplement of paper PMC12217912.
The list shows a part of the results. The full chains were built here from the parent and the listed change. Inactive controls read about 0.05.

B1: TEV protease; numbered along this chain (parent)
chain: MGESLFKGPRDYNPISSSICHLTNESDGHTTSLYGIGFGPFIITNKHLFRRNNGTLVVQSLHGVFKVKDTTTLQQHLVDGRDMIIIRMPKDFPPFPQKLKFREPQREERICLVTTNFQTKSMSSMVSDTSCTFPSGDGIFWKHWIQTKDGQCGSPLVSTRDGFIVGIHSASNFTNTNNYFTSVPKNFMELLTNQEAQQWVSGWRLNADSVLWGGHKVFMVKPEEPFQPVKEATQL

Variants of: B1
Experiment: raw area under fraction-flipped curve 0-4 h after induction (AUC4h, not background-subtracted), DNA-recorder readout of cleavage of the substrate (dimensionless); higher = more cleavage of the substrate by the protease variant
Details: temperature: 34 °C; time window: 0-4 h after rhamnose induction
Protocol: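 In vivo DNA recorder in E. coli TOP10(DE3) ΔrhaA at 34 °C. Each TEVp single-site mutant (parent TEVp 0) is paired with a single-site variant of the 7-mer TEVs (canonical ENLYFQ|S). The substrate sits between flexible linkers in a Bxb1-sfGFP-TEVs-SsrA fusion, so cleavage stabilises Bxb1 and speeds flipping of a recombination array, read by NGS. The value is the raw area under the fraction-flipped curve over 0-4 h after rhamnose induction (AUC4h), with ≥20 reads per time point. It is not background-subtracted; inactive controls average about 0.047.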
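Also: Bxb1 expression induced with 0.2% (w/v) L-rhamnose at OD600 near 0.5, cultures sampled hourly, flipped fraction per protease–substrate barcode pair counted by paired-end Illumina sequencing.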

| Variant | area with substrate ENAYFQS | area with substrate ENCYFQS | area with substrate ENDYFQS | area with substrate ENEYFQS | area with substrate ENFYFQS | area with substrate ENKYFQS | area with substrate ENNYFQS | area with substrate ENQYFQS | area with substrate ENRYFQS | area with substrate ENTYFQS | area with substrate ENVYFQS | area with substrate ENYYFQS | area with substrate ENHYFQS | area with substrate ENPYFQS | area with substrate ENSYFQS | area with substrate ENWYFQS | area with substrate ENGYFQS | area with substrate ENMYFQS |
| --- | --- | --- | --- | --- | --- | --- | --- | --- | --- | --- | --- | --- | --- | --- | --- | --- | --- | --- |
| MGESLFKGPRKYNPISSSICHLTNESDGHTTSLYGIGFGPFIITNKHLFRRNNGTLVVQSLHGVFKVKDTTTLQQHLVDGRDMIIIRMPKDFPPFPQKLKFREPQREERICLVTTNFQTKSMSSMVSDTSCTFPSGDGIFWKHWIQTKDGQCGSPLVSTRDGFIVGIHSASNFTNTNNYFTSVPKNFMELLTNQEAQQWVSGWRLNADSVLWGGHKVFMVKPEEPFQPVKEATQL [D11K] | 0.0655 | 0.0707 | 0.0635 | 0.0532 | 0.0448 | 0.0635 | 0.0611 | 0.0596 | 0.0627 | 0.0676 | 0.067 | 0.039 |  |  |  |  |  |  |
| MGEPLFKGPRDYNPISSSICHLTNESDGHTTSLYGIGFGPFIITNKHLFRRNNGTLVVQSLHGVFKVKDTTTLQQHLVDGRDMIIIRMPKDFPPFPQKLKFREPQREERICLVTTNFQTKSMSSMVSDTSCTFPSGDGIFWKHWIQTKDGQCGSPLVSTRDGFIVGIHSASNFTNTNNYFTSVPKNFMELLTNQEAQQWVSGWRLNADSVLWGGHKVFMVKPEEPFQPVKEATQL [S4P] | 0.061 | 0.0705 | 0.0633 | 0.0749 | 0.0547 | 0.0657 | 0.0769 | 0.0573 |  | 0.0501 |  | 0.069 | 0.0696 | 0.0576 | 0.0644 | 0.0657 |  |  |
| MGEVLFKGPRDYNPISSSICHLTNESDGHTTSLYGIGFGPFIITNKHLFRRNNGTLVVQSLHGVFKVKDTTTLQQHLVDGRDMIIIRMPKDFPPFPQKLKFREPQREERICLVTTNFQTKSMSSMVSDTSCTFPSGDGIFWKHWIQTKDGQCGSPLVSTRDGFIVGIHSASNFTNTNNYFTSVPKNFMELLTNQEAQQWVSGWRLNADSVLWGGHKVFMVKPEEPFQPVKEATQL [S4V] | 0.0548 | 0.0757 | 0.0782 | 0.0689 | 0.0691 |  |  | 0.056 |  |  |  |  | 0.0677 |  | 0.0606 |  | 0.0492 | 0.0918 |
| MGEKLFKGPRDYNPISSSICHLTNESDGHTTSLYGIGFGPFIITNKHLFRRNNGTLVVQSLHGVFKVKDTTTLQQHLVDGRDMIIIRMPKDFPPFPQKLKFREPQREERICLVTTNFQTKSMSSMVSDTSCTFPSGDGIFWKHWIQTKDGQCGSPLVSTRDGFIVGIHSASNFTNTNNYFTSVPKNFMELLTNQEAQQWVSGWRLNADSVLWGGHKVFMVKPEEPFQPVKEATQL [S4K] | 0.0535 |  |  | 0.0521 |  | 0.0574 | 0.0504 | 0.0592 |  | 0.0444 | 0.0924 |  |  | 0.0616 | 0.103 | 0.0131 |  |  |
| MGEELFKGPRDYNPISSSICHLTNESDGHTTSLYGIGFGPFIITNKHLFRRNNGTLVVQSLHGVFKVKDTTTLQQHLVDGRDMIIIRMPKDFPPFPQKLKFREPQREERICLVTTNFQTKSMSSMVSDTSCTFPSGDGIFWKHWIQTKDGQCGSPLVSTRDGFIVGIHSASNFTNTNNYFTSVPKNFMELLTNQEAQQWVSGWRLNADSVLWGGHKVFMVKPEEPFQPVKEATQL [S4E] | 0.0721 | 0.065 | 0.0618 | 0.0541 | 0.0596 | 0.065 | 0.0453 | 0.0474 | 0.0575 | 0.0632 | 0.1 | 0.0474 | 0.0546 | 0.0584 | 0.043 |  | 0.0826 |  |
